Consider 57 compounds from article PMC4336329 (PLoS ONE, 2015).

Hit rate of the full screen: of about 310,000 compounds, about 2,200 (0.71%) showed an effect of 50% or more. The effect is printed as a negative number. Some of the results follow.

The target in the assay is human ether-à-go-go-related gene (hERG) potassium channel (human, UniProt Q12809). Put plainly: primary screen, population patch clamp on CHO cells stably expressing hERG.
human ether-à-go-go-related gene (hERG) potassium channel, sequence (Q12809 whole entry, looked up): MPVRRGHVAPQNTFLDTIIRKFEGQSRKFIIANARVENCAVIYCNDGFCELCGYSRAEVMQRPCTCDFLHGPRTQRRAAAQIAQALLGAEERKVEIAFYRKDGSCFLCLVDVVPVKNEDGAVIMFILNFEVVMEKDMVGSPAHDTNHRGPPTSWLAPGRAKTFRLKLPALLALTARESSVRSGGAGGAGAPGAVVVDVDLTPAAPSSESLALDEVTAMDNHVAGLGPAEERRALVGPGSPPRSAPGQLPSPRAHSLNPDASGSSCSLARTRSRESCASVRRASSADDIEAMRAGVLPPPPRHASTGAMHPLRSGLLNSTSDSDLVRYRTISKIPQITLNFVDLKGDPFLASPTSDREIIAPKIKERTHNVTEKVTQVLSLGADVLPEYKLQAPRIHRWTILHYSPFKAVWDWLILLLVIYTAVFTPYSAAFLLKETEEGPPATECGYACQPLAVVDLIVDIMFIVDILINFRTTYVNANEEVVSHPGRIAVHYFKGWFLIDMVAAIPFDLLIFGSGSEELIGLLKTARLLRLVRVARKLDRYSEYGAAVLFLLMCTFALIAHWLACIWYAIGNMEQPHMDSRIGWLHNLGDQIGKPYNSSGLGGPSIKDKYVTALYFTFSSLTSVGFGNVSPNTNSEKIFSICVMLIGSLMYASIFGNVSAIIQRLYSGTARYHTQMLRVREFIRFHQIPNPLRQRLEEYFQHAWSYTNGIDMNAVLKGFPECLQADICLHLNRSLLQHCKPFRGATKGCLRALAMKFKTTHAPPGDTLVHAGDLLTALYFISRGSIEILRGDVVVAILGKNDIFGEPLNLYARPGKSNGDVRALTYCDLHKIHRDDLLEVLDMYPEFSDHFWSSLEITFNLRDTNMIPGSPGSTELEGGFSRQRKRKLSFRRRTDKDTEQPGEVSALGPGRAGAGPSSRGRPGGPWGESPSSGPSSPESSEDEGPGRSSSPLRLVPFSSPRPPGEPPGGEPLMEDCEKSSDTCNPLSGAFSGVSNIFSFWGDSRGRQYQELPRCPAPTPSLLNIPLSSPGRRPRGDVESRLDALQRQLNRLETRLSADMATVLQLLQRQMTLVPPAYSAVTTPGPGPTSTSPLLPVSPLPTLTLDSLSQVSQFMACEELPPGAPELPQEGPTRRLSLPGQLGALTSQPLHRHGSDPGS
For the compound `COC(=O)c1[nH]c2ccc(C)cc2c1NC(=O)CN1CCN(c2ccccc2)CC1`, the “hERG current change (%, negative = inhibition) at 1uM” value came to 8.44%.
In the case of `O=C(Cc1nnc(NC(=O)c2cccc([N+](=O)[O-])c2)s1)NCc1ccccc1`, the “hERG current change (%, negative = inhibition) at 1uM” value is recorded as 15.6%.
The value for `COc1ccc(-n2cc(CNCC3CC(=O)N(C4CC4)C3)c(-c3ccccc3Cl)n2)cc1` (stereo not drawn) was 1.9%.
With `COc1ccccc1N1CCN(C(=O)c2ccc(N3CCCC3=O)cc2)CC1` the figure was 6.64%.
With `COC(=O)c1ccc(-c2ccc(/C=N/NC(=O)CC3(C)OCCCO3)o2)cc1` the figure was 11.3%; with `COc1ccc(C(C)NC(=S)NCc2ccc(F)cc2)cc1OC` (stereo not drawn), 3.47%; with `COc1ccc(N2C(=O)C3CCCN3C2c2ccccc2Cl)cc1` (stereo not drawn), 8.68%.
For `CC(C)C(NS(=O)(=O)c1ccc2c(c1)C(C)(C)C(=O)N2C)C(=O)NCc1ccccc1Cl` (stereo not drawn), the “hERG current change (%, negative = inhibition) at 1uM” value worked out at 3.16%.
As to `O=C1CC(c2ccccc2)Sc2nc(-c3ccccc3)c(-c3ccccc3)n21` (stereo not drawn), the “hERG current change (%, negative = inhibition) at 1uM” value came to 7.14%.
As for `COc1ccc(OC)c(C(=O)Cn2nnc(-c3ccc(N4CCOCC4)cc3)n2)c1`, the “hERG current change (%, negative = inhibition) at 1uM” value is given as 13.1%.
With `CC(C)CCn1c(CN(C)Cc2ccccc2)nc2c1c(=O)n(C)c(=O)n2C` the figure was -21.1%.
With `C[n+]1cc(-c2ccccc2)oc1-c1ccccc1` the figure was 18.5%; with `CCOC(=O)C1CCCN(C(=O)Cn2nc(CC)n3c(cc4sccc43)c2=O)C1` (stereo not drawn), 2.36%; with `CC(=O)/C=C/c1ccccc1Oc1c(F)c(F)nc(F)c1F`, 9.93%.
Consider `O=C(N/N=C/c1ccc2c(c1)OCO2)C(=O)N1CCCC1`, for which the “hERG current change (%, negative = inhibition) at 1uM” value is 9.83%.
For `CCn1c(SCC(=O)c2ccc3c(c2)OCCO3)nnc1-c1ccco1`, the “hERG current change (%, negative = inhibition) at 1uM” value is -3.18%.
Consider `COc1ccc(-n2c(C)nn(C)c2=O)c(OC)c1`, for which the “hERG current change (%, negative = inhibition) at 1uM” value is 3.28%.
The value for `O=C(CC12CC3CC(CC(Br)(C3)C1)C2)OCCN1CCCCC1` was 8.55%.
With `Clc1ccc(Nc2c3c(nc4ncnn24)CCC3)cc1` the figure was 24.3%; with `CCOc1ccc(-c2nc(C#N)c(N3CCCCCC3)o2)cc1`, 7.29%.
The value for `Cc1nc2cc(C(=O)O)ccc2n1C1CCCCC1` was 8.97%; that for `C=CCn1c(=O)c(C(=O)NCc2ccccc2Cl)c(O)c2ccccc21` was 12.6%.
As to `C/C(CC(=O)NCc1ccccc1Cl)=N/NC(=O)c1ccccn1`, the “hERG current change (%, negative = inhibition) at 1uM” value is listed as 11.4%.
With `COc1ccc(S(=O)(=O)N(CCC(=O)O)Cc2ccccc2)cc1` the figure was 10.4%; with `O=C(CSc1ncnc2ccccc12)NCc1ccco1`, 10.9%.
With `COc1ccc(C(=O)NNC(=S)NC(=O)c2ccco2)cc1` the figure was 9.54%; with `CCOc1ccc(Cl)cc1S(=O)(=O)NC1CCCC1`, 17.2%.
The value for `COc1ccc(NC(=S)Nc2ccccc2SC)c(OC)c1` was 10.2%; that for `COc1cc(OC)c(C#N)c(S(=O)(=O)Cc2ccccc2)c1` was -9%; that for `Nc1cc(OCC(F)(F)F)cc([N+](=O)[O-])c1` was 10%.
`CCS(=O)(=O)c1ccc(-c2cccc(NC(=O)COc3ccccc3)c2)nn1`: the “hERG current change (%, negative = inhibition) at 1uM” value worked out at 9.2%.
The value for `Cn1c(C(=O)NCc2cccs2)cc2oc3ccccc3c21` was 5.03%.
Turning to `CCc1noc(C)c1C(=O)N1CCN(S(=O)(=O)c2ccc(C(C)C)cc2)CC1`, the “hERG current change (%, negative = inhibition) at 1uM” value is reported as -5.49%.
With `CCOc1cc(/C=N/NC(=O)c2cccnc2)ccc1OCC(=O)N(C)C` the figure was 15.3%; with `Cc1ccc(NC(=O)Nc2cc(C(F)(F)F)c[nH]c2=O)cc1`, 15%.
With `CN(C)S(=O)(=O)c1cccc(NC(=O)/C=C/c2ccccc2[N+](=O)[O-])c1` the figure was 9.75%.
With `O=C1C2C3C=CC(C3)C2C(=O)N1c1n[nH]c(-c2ccccc2)n1` (stereo not drawn) the figure was -0.114%.
For `COc1ccc(S(=O)(=O)NCC2CCCN(C(=O)c3cccs3)C2)cc1` (stereo not drawn), the “hERG current change (%, negative = inhibition) at 1uM” value was 7%.
The value for `CCOC(=O)N1CCN(C(=O)c2oc(=O)c3ccccc3c2-c2ccc(C)cc2)CC1` was -3.27%; that for `Cl.O=C(CN1CCN(c2ncccn2)CC1)N(Cc1ccccc1)c1ccc(F)cc1` was 1.82%.
The value for `Cc1cccc(/C=N/NC(=O)c2cc(-c3cccnc3)nc3c2c(C)nn3-c2ccccc2)c1` was -3.85%; that for `COc1ccccc1CNC(=O)c1ccncc1` was 16.6%; that for `CCN(CC)C(=O)c1ccc(N)cc1` was 9.68%.
The value for `COc1cc(CO)cc(-c2cc(CO)cc(OC)c2OC)c1OC` was 10.5%; that for `Cc1cccc(C(=O)OCC(=O)N2CC(C)OC(C)C2)c1C` (stereo not drawn) was 19.1%; that for `CCOc1cc(/C=C2\SC(=N)N(c3nonc3N)C2=O)ccc1OCC(N)=O` was 8.13%.
As to `O=C(Nc1ccc(-c2nnc(-c3ccco3)o2)cc1)C(c1ccccc1)c1ccccc1`, the “hERG current change (%, negative = inhibition) at 1uM” value is 12.8%.
With `CCOc1ccc(Nc2oc(-c3ccco3)nc2C#N)cc1` the figure was 8.43%; with `CC1(C)C2([N+](=O)[O-])CN3CC1([N+](=O)[O-])CN(C2)C3c1cccnc1` (stereo not drawn), 11.8%.
With `CCN1CCN(S(=O)(=O)c2ccc(F)c(C(=O)Nc3c(F)cc(F)cc3Br)c2)CC1` the figure was 4.96%.
The value for `CCn1c2ccccc2c2cc(C#N)c(N)nc21` was -0.12%.
With `COC(=O)c1sc(N)c(C(=O)OC)c1COC(=O)CCNS(=O)(=O)c1ccc(C)cc1`, the “hERG current change (%, negative = inhibition) at 1uM” value is reported as 8.17%.
With `O=C(O)CC1NC(=O)N(c2ccc(Cl)cc2)C1=O` (stereo not drawn) the figure was 13.6%; with `Cc1cccc(NC(=O)NNC(=O)COc2ccc([N+](=O)[O-])cc2)c1C`, 7.92%; with `CCCN1CCN(C(=O)CCCNC(=O)Cn2cnc3sc(C)c(C)c3c2=O)CC1`, 12.7%.
With `CC(=O)c1ccccc1NC(=O)COC(=O)c1ccccc1NC(=O)c1ccccc1` the figure was 7.74%; with `COc1ccc(OC)c(C2=NOC(C(=O)NCc3cccnc3)C2)c1` (stereo not drawn), -41.8%.
